# Measurements from the supplement of paper PMC8728848.
# The list shows a part of the results.
# Tests used:
# Test in all cases: glycan array binding signal (z-score within array); higher = stronger binding
# Settings in all cases: glycan notation: IUPAC condensed, linker removed
# [1] = biological target: GlcNAc(b1-3)Gal(b1-3)GalNAc
# Procedure, shortened: (§1)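 Columns mapping to the same glycan were averaged after glycan names were converted to IUPAC-condensed notation. The data come from 3228 arrays in the Consortium for Functional Glycomics database, limited to those with an available protein sequence. Binding is reported as a within-array Z-score averaged across arrays of one protein sequence and across linkers.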
# [2] = biological target: GlcNAc(b1-3)Gal(b1-4)Glc
# Procedure, shortened: as §1
# [3] = biological target: GlcNAc(b1-3)Gal(b1-4)GlcNAc
# Procedure, shortened: as §1
# [4] = biological target: GlcNAc(b1-3)Gal(b1-4)GlcNAc(b1-2)Man(a1-3)[GlcNAc(b1-3)Gal(b1-4)GlcNAc(b1-2)Man(a1-6)]Man(b1-4)GlcNAc(b1-4)GlcNAc
# Procedure, shortened: as §1
# [5] = biological target: GlcNAc(b1-3)Gal(b1-4)GlcNAc(b1-2)Man(a1-3)[GlcNAc(b1-3)Gal(b1-4)GlcNAc(b1-2)Man(a1-6)]Man(b1-4)GlcNAc(b1-4)[Fuc(a1-6)]GlcNAc
# Procedure, shortened: as §1
# [6] = biological target: GlcNAc(b1-3)Gal(b1-4)GlcNAc(b1-2)[GlcNAc(b1-3)Gal(b1-4)GlcNAc(b1-6)]Man(a1-6)[GlcNAc(b1-3)Gal(b1-4)GlcNAc(b1-2)Man(a1-3)]Man(b1-4)GlcNAc(b1-4)GlcNAc
# Procedure, shortened: as §1
# [7] = biological target: GlcNAc(b1-3)Gal(b1-4)GlcNAc(b1-3)Gal(b1-4)GlcNAc
# Procedure, shortened: as §1
# [8] = biological target: GlcNAc(b1-3)Gal(b1-4)GlcNAc(b1-3)Gal(b1-4)GlcNAc(b1-2)Man(a1-3)[GlcNAc(b1-3)Gal(b1-4)GlcNAc(b1-3)Gal(b1-4)GlcNAc(b1-2)Man(a1-6)]Man(b1-4)GlcNAc(b1-4)GlcNAc
# Procedure, shortened: as §1
# [9] = biological target: GlcNAc(b1-3)Gal(b1-4)GlcNAc(b1-3)Gal(b1-4)GlcNAc(b1-2)Man(a1-3)[GlcNAc(b1-3)Gal(b1-4)GlcNAc(b1-3)Gal(b1-4)GlcNAc(b1-2)Man(a1-6)]Man(b1-4)GlcNAc(b1-4)[Fuc(a1-6)]GlcNAc
# Procedure, shortened: as §1
# [10] = biological target: GlcNAc(b1-3)Gal(b1-4)GlcNAc(b1-3)Gal(b1-4)GlcNAc(b1-2)[GlcNAc(b1-3)Gal(b1-4)GlcNAc(b1-3)Gal(b1-4)GlcNAc(b1-6)]Man(a1-6)[GlcNAc(b1-3)Gal(b1-4)GlcNAc(b1-3)Gal(b1-4)GlcNAc(b1-2)Man(a1-3)]Man(b1-4)GlcNAc(b1-4)[Fuc(a1-6)]GlcNAc
# Procedure, shortened: as §1
# [11] = biological target: GlcNAc(b1-3)Gal(b1-4)GlcNAc(b1-3)Gal(b1-4)GlcNAc(b1-3)Gal(b1-4)GlcNAc(b1-2)Man(a1-3)[GlcNAc(b1-3)Gal(b1-4)GlcNAc(b1-3)Gal(b1-4)GlcNAc(b1-3)Gal(b1-4)GlcNAc(b1-2)Man(a1-6)]Man(b1-4)GlcNAc(b1-4)GlcNAc
# Procedure, shortened: as §1
# [12] = biological target: GlcNAc(b1-3)Gal(b1-4)GlcNAc(b1-3)Gal(b1-4)GlcNAc(b1-3)Gal(b1-4)GlcNAc(b1-2)Man(a1-3)[GlcNAc(b1-3)Gal(b1-4)GlcNAc(b1-3)Gal(b1-4)GlcNAc(b1-3)Gal(b1-4)GlcNAc(b1-2)Man(a1-6)]Man(b1-4)GlcNAc(b1-4)[Fuc(a1-6)]GlcNAc
# Procedure, shortened: as §1
# [13] = biological target: GlcNAc(b1-3)Gal(b1-4)GlcNAc(b1-3)Gal(b1-4)GlcNAc(b1-3)Gal(b1-4)GlcNAc(b1-2)[GlcNAc(b1-3)Gal(b1-4)GlcNAc(b1-3)Gal(b1-4)GlcNAc(b1-3)Gal(b1-4)GlcNAc(b1-6)]Man(a1-6)[GlcNAc(b1-3)Gal(b1-4)GlcNAc(b1-3)Gal(b1-4)GlcNAc(b1-3)Gal(b1-4)GlcNAc(b1-2)Man(a1-3)]Man(b1-4)GlcNAc(b1-4)[Fuc(a1-6)]GlcNAc
# Procedure, shortened: as §1
# [14] = biological target: GlcNAc(b1-3)Gal(b1-4)GlcNAc(b1-3)Gal(b1-4)GlcNAc(b1-3)Gal(b1-4)GlcNAc(b1-3)Gal(b1-4)GlcNAc(b1-2)Man(a1-3)[GlcNAc(b1-3)Gal(b1-4)GlcNAc(b1-3)Gal(b1-4)GlcNAc(b1-3)Gal(b1-4)GlcNAc(b1-3)Gal(b1-4)GlcNAc(b1-2)Man(a1-6)]Man(b1-4)GlcNAc(b1-4)GlcNAc
# Procedure, shortened: as §1
# [15] = biological target: GlcNAc(b1-3)Gal(b1-4)GlcNAc(b1-3)Gal(b1-4)GlcNAc(b1-3)Gal(b1-4)GlcNAc(b1-3)Gal(b1-4)GlcNAc(b1-2)Man(a1-3)[GlcNAc(b1-3)Gal(b1-4)GlcNAc(b1-3)Gal(b1-4)GlcNAc(b1-3)Gal(b1-4)GlcNAc(b1-3)Gal(b1-4)GlcNAc(b1-2)Man(a1-6)]Man(b1-4)GlcNAc(b1-4)[Fuc(a1-6)]GlcNAc
# Procedure, shortened: as §1
# [16] = biological target: GlcNAc(b1-3)Gal(b1-4)GlcNAc(b1-3)Gal(b1-4)GlcNAc(b1-3)Gal(b1-4)GlcNAc(b1-3)Gal(b1-4)GlcNAc(b1-2)[GlcNAc(b1-3)Gal(b1-4)GlcNAc(b1-3)Gal(b1-4)GlcNAc(b1-3)Gal(b1-4)GlcNAc(b1-3)Gal(b1-4)GlcNAc(b1-6)]Man(a1-6)[GlcNAc(b1-3)Gal(b1-4)GlcNAc(b1-3)Gal(b1-4)GlcNAc(b1-3)Gal(b1-4)GlcNAc(b1-3)Gal(b1-4)GlcNAc(b1-2)Man(a1-3)]Man(b1-4)GlcNAc(b1-4)[Fuc(a1-6)]GlcNAc
# Procedure, shortened: as §1
# [17] = biological target: GlcNAc(b1-3)Gal(b1-4)GlcNAc(b1-3)Gal(b1-4)GlcNAc(b1-3)GalNAc
# Procedure, shortened: as §1
# [18] = biological target: GlcNAc(b1-3)Gal(b1-4)GlcNAc(b1-3)GalNAc
# Procedure, shortened: as §1
# [19] = biological target: GlcNAc(b1-3)Gal(b1-4)GlcNAc(b1-3)[GlcNAc(b1-3)Gal(b1-4)GlcNAc(b1-3)]GalNAc
# Procedure, shortened: as §1
# [20] = biological target: GlcNAc(b1-3)Gal(b1-4)GlcNAc(b1-6)[Gal(b1-3)]GalNAc
# Procedure, shortened: as §1
# [21] = biological target: GlcNAc(b1-3)Gal(b1-4)GlcNAc(b1-6)[GlcNAc(b1-3)Gal(b1-3)]GalNAc
# Procedure, shortened: as §1
# [22] = biological target: GlcNAc(b1-3)Gal(b1-4)GlcNAc(b1-6)[GlcNAc(b1-3)]Gal(b1-4)GlcNAc
# Procedure, shortened: as §1
# [23] = biological target: GlcNAc(b1-3)GalNAc
# Procedure, shortened: as §1
# [24] = biological target: GlcNAc(b1-3)Man
# Procedure, shortened: as §1
# [25] = biological target: GlcNAc(b1-3)[GlcNAc(b1-4)][GlcNAc(b1-6)]GlcNAc
# Procedure, shortened: as §1
# [26] = biological target: GlcNAc(b1-3)[GlcNAc(b1-6)]Gal(b1-4)GlcNAc
# Procedure, shortened: as §1
# [27] = biological target: GlcNAc(b1-3)[GlcNAc(b1-6)]GalNAc
# Procedure, shortened: as §1
# [28] = biological target: GlcNAc(b1-4)Gal(b1-4)GlcNAc
# Procedure, shortened: as §1
# [29] = biological target: GlcNAc(b1-4)GlcNAc
# Procedure, shortened: as §1
# [30] = biological target: GlcNAc(b1-4)GlcNAc(b1-4)GlcNAc
# Procedure, shortened: as §1
# [31] = biological target: GlcNAc(b1-4)GlcNAc(b1-4)GlcNAc(b1-4)GlcNAc(b1-4)GlcNAc
# Procedure, shortened: as §1
# [32] = biological target: GlcNAc(b1-4)GlcNAc(b1-4)GlcNAc(b1-4)GlcNAc(b1-4)GlcNAc(b1-4)GlcNAc
# Procedure, shortened: as §1
# [33] = biological target: GlcNAc(b1-4)[GlcNAc(b1-6)]GalNAc
# Procedure, shortened: as §1
# [34] = biological target: GlcNAc(b1-6)Gal(b1-4)GlcNAc
# Procedure, shortened: as §1
# [35] = biological target: GlcNAc(b1-6)GalNAc
# Procedure, shortened: as §1
# [36] = biological target: GlcNAc6S(b1-3)Gal(b1-4)GlcNAc
# Procedure, shortened: as §1
# [37] = biological target: Kdn(a2-3)Gal(b1-3)GalNAc
# Procedure, shortened: as §1
# [38] = biological target: Kdn(a2-3)Gal(b1-3)GlcNAc
# Procedure, shortened: as §1
# [39] = biological target: Kdn(a2-3)Gal(b1-4)Glc
# Procedure, shortened: as §1
# [40] = biological target: Kdn(a2-3)Gal(b1-4)GlcNAc
# Procedure, shortened: as §1
# [41] = biological target: Kdn(a2-3)Gal(b1-4)[Fuc(a1-3)]GlcNAc
# Procedure, shortened: as §1
# [42] = biological target: Kdn(a2-6)Gal(b1-4)GlcNAc
# Procedure, shortened: as §1
# [43] = biological target: Man(a1-2)Man(a1-2)Man(a1-3)Man
# Procedure, shortened: as §1
# [44] = biological target: Man(a1-2)Man(a1-2)Man(a1-6)[Man(a1-3)]Man
# Procedure, shortened: as §1
# [45] = biological target: Man(a1-2)Man(a1-3)Man
# Procedure, shortened: as §1
binder,measurement,setting,value
"EPL1 (Trichoderma atroviride), A0PCX2 (protein) MQLSNLFKLALFTAAVSADTVSYDTGYDDASRSLTVVSCSDGTNGLITRYHWQTQGQIPRFPYIGGAQAVAGWNSPNCGTCWKLTYSGKTIYVLAIDHTAAGFNIGLDAMNALTNGNAVALGRVSATASQVAVSNCGL",glycan array binding signal (z-score),[1],-0.143
same,glycan array binding signal (z-score),[2],-0.465
same,glycan array binding signal (z-score),[3],-0.488
same,glycan array binding signal (z-score),[4],0.452
same,glycan array binding signal (z-score),[5],0.103
same,glycan array binding signal (z-score),[6],0.498
same,glycan array binding signal (z-score),[7],0.071
same,glycan array binding signal (z-score),[8],0.862
same,glycan array binding signal (z-score),[9],0.145
same,glycan array binding signal (z-score),[10],0.274
same,glycan array binding signal (z-score),[11],0.234
same,glycan array binding signal (z-score),[12],0.866
same,glycan array binding signal (z-score),[13],0.127
same,glycan array binding signal (z-score),[14],-0.389
same,glycan array binding signal (z-score),[15],-0.351
same,glycan array binding signal (z-score),[16],-0.382
same,glycan array binding signal (z-score),[17],-0.528
same,glycan array binding signal (z-score),[18],-0.37
same,glycan array binding signal (z-score),[19],-0.324
same,glycan array binding signal (z-score),[20],-0.043
same,glycan array binding signal (z-score),[21],-0.329
same,glycan array binding signal (z-score),[22],-0.15
same,glycan array binding signal (z-score),[23],-0.464
same,glycan array binding signal (z-score),[24],-0.466
same,glycan array binding signal (z-score),[25],-0.494
same,glycan array binding signal (z-score),[26],-0.117
same,glycan array binding signal (z-score),[27],-0.302
same,glycan array binding signal (z-score),[28],0.183
same,glycan array binding signal (z-score),[29],-0.11
same,glycan array binding signal (z-score),[30],-0.632
same,glycan array binding signal (z-score),[31],-0.177
same,glycan array binding signal (z-score),[32],-0.489
same,glycan array binding signal (z-score),[33],0.321
same,glycan array binding signal (z-score),[34],-0.108
same,glycan array binding signal (z-score),[35],-0.373
same,glycan array binding signal (z-score),[36],-0.471
same,glycan array binding signal (z-score),[37],0.117
same,glycan array binding signal (z-score),[38],-0.354
same,glycan array binding signal (z-score),[39],-0.096
same,glycan array binding signal (z-score),[40],-0.521
same,glycan array binding signal (z-score),[41],-0.322
same,glycan array binding signal (z-score),[42],0.395
same,glycan array binding signal (z-score),[43],-0.108
same,glycan array binding signal (z-score),[44],-0.099
same,glycan array binding signal (z-score),[45],-0.013
